The results in this text go back to ChEMBL document CHEMBL3885881, “DrugMatrix”.

For part of its entries the source gives two or more results. The other results are left out here. There may be further records. The values listed for one entry are repeated measurements across runs, samples, wells, individuals or studies. Records carry a tag for their origin. A, B and so on number the origins entry by entry.

The species named for the series is Rattus norvegicus. Description: DrugMatrix - Regimen: Daily Repeat. Also on record: regimen Daily Repeat, gender Male, age 6-8 weeks. It is filed as toxicity, organism-based, Sprague-Dawley. The following applies: in vivo, po, 0 mg/kg, 120 h, tissue Plasma, route oral GAVAGE, dose level Control, time 5 day, vehicle .5 % CMC.

As for `Clc1cc2c(cc1Cl)Oc1cc(Cl)c(Cl)cc1O2` [2,3,7,8-TETRACHLORODIBENZO-P-DIOXIN], the “TOTAL BILIRUBIN” value is 0.18 mg/dL [study A] and 0.55 mg/dL [study B]. With `O=c1cc(-c2ccccc2)oc2ccc3ccccc3c12` [BETA-NAPHTHOFLAVONE], the “TOTAL BILIRUBIN” value is 0.18 mg/dL [study A] and 0.55 mg/dL [study B].
